# According to the supplement of paper PMC4604168 (melanoma cell lines):
# The list shows a part of the results. Single values are uncertain, as repeats are few or missing.
# System: WM3526
# Experiment: cell count relative to DMSO control; melanoma cells; higher = more viable cells
# Conditions: library dose: low library concentration; 72 h
# 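Note: cell number obtained by counting DAPI-stained nuclei in high-throughput microscope images with image analysis software, screen run in 1,536-well plates.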
row,Compound,cell count [%]
1,"CS(=O)(=O)CCNCc1ccc(-c2ccc3ncnc(Nc4ccc(OCc5cccc(F)c5)c(Cl)c4)c3c2)o1 [lapatinib] + CCc1ccc(CCOc2ccc(CC3SC(=O)NC3=O)cc2)nc1 [pioglitazone] (first compound 0.8 µM, partner dose 2 µM)",86.2
2,"C[C@@H](Oc1cc(-c2cnn(C3CCNCC3)c2)cnc1N)c1c(Cl)ccc(F)c1Cl [Crizotinib] + CCN(CC)CCCCNc1ncc2cc(-c3cc(OC)cc(OC)c3)c(NC(=O)NC(C)(C)C)nc2n1 [PD173074] (first compound 0.2 µM, partner dose 0.1 µM)",97.5
3,"C[C@@H](Oc1cc(-c2cnn(C3CCNCC3)c2)cnc1N)c1c(Cl)ccc(F)c1Cl [Crizotinib] + CC(C)(C)c1cnc(CSc2cnc(NC(=O)C3CCNCC3)s2)o1 [SNS-032] (first compound 0.2 µM, partner dose 0.01 µM)",104
4,"CNC(=O)c1cc(Oc2ccc(NC(=O)Nc3ccc(Cl)c(C(F)(F)F)c3)cc2)ccn1 [sorafenib] + NC(=O)Nc1cc(-c2cccc(F)c2)sc1C(=O)N[C@H]1CCCNC1 [AZD7762] (first compound 0.4 µM, partner dose 0.02 µM)",91.4
5,"CN1CCN(c2ccc3nc(-c4c(N)c5c(F)cccc5[nH]c4=O)[nH]c3c2)CC1 [Dovitinib] + Nc1nc(F)nc2c1ncn2[C@@H]1O[C@H](CO)[C@@H](O)[C@@H]1O [fludarabine] (first compound 0.1 µM, partner dose 0.2 µM)",32.5
6,"CS(=O)(=O)CCNCc1ccc(-c2ccc3ncnc(Nc4ccc(OCc5cccc(F)c5)c(Cl)c4)c3c2)o1 [lapatinib] + O=S(=O)(c1ccccc1)N(CC(F)(F)F)c1ccc(C(O)(C(F)(F)F)C(F)(F)F)cc1 [T0901317] (first compound 0.8 µM, partner dose 1.4 µM)",90.8
7,"CN1CCN(c2ccc3nc(-c4c(N)c5c(F)cccc5[nH]c4=O)[nH]c3c2)CC1 [Dovitinib] + O=C(CCCCCCC(=O)Nc1ccccc1)NO [vorinostat] (first compound 0.1 µM, partner dose 0.08 µM)",79.8
8,"C[C@@H](Oc1cc(-c2cnn(C3CCNCC3)c2)cnc1N)c1c(Cl)ccc(F)c1Cl [Crizotinib] + Cn1cc(/C=C2\C(=O)Nc3cccnc32)c2ccccc21 [GW441756] (first compound 0.2 µM, partner dose 0.4 µM)",105
9,"CN1CCN(c2ccc3nc(-c4c(N)c5c(F)cccc5[nH]c4=O)[nH]c3c2)CC1 [Dovitinib] + Cc1cc(N2CCOCC2)cc2[nH]c(-c3c(NC[C@@H](O)c4cccc(Cl)c4)cc[nH]c3=O)nc12 [BMS536924] (first compound 0.1 µM, partner dose 0.2 µM)",67.7
10,"CS(=O)(=O)CCNCc1ccc(-c2ccc3ncnc(Nc4ccc(OCc5cccc(F)c5)c(Cl)c4)c3c2)o1 [lapatinib] + Clc1ccc(Nc2nnc(Cc3ccncc3)c3ccccc23)cc1 [vatalanib] (first compound 0.8 µM, partner dose 2 µM)",98.5

# System: WM3619
# Experiment: as above
# Conditions: library dose: low library concentration; 72 h
row,Compound,cell count [%]
1,"C=CCNC1=C2C[C@@H](C)C[C@H](OC)[C@H](O)[C@@H](C)/C=C(\C)[C@H](OC(N)=O)[C@@H](OC)/C=C\C=C(/C)C(=O)NC(=CC1=O)C2=O [Tanespimycin] + CC(C)CCN1c2nc(Nc3cc(F)c(O)c(F)c3)ncc2N(C)C(=O)C1C [BID1870] (first compound 0.002 µM, partner dose 0.2 µM)",76.3
2,"CS(=O)(=O)CCNCc1ccc(-c2ccc3ncnc(Nc4ccc(OCc5cccc(F)c5)c(Cl)c4)c3c2)o1 [lapatinib] + Nc1nc(F)nc2c1ncn2[C@@H]1O[C@H](CO)[C@@H](O)[C@@H]1O [fludarabine] (first compound 0.8 µM, partner dose 0.2 µM)",111
3,"CNC(=O)c1cc(Oc2ccc(NC(=O)Nc3ccc(Cl)c(C(F)(F)F)c3)cc2)ccn1 [sorafenib] + C#Cc1cccc(Nc2ncnc3cc(OCCOC)c(OCCOC)cc23)c1 [erlotinib] (first compound 0.4 µM, partner dose 0.8 µM)",108
4,"CN1CCN(c2ccc3nc(-c4c(N)c5c(F)cccc5[nH]c4=O)[nH]c3c2)CC1 [Dovitinib] + O=C(O)c1ccc2c(c1)nc(Nc1cccc(Cl)c1)c1ccncc12 [CX4945] (first compound 0.1 µM, partner dose 0.4 µM)",90.1
5,"CN1CCN(c2ccc3nc(-c4c(N)c5c(F)cccc5[nH]c4=O)[nH]c3c2)CC1 [Dovitinib] + O=C(Nc1ccccc1)c1cc([N+](=O)[O-])ccc1Cl [GW9662] (first compound 0.1 µM, partner dose 2 µM)",114
6,"C[C@@H](Oc1cc(-c2cnn(C3CCNCC3)c2)cnc1N)c1c(Cl)ccc(F)c1Cl [Crizotinib] + NCC(=O)Nc1ccc(-n2nc(C(F)(F)F)cc2-c2ccc3c(ccc4ccccc43)c2)cc1 [OSU03012] (first compound 0.2 µM, partner dose 1 µM)",116
7,"CN1CCN(c2ccc3nc(-c4c(N)c5c(F)cccc5[nH]c4=O)[nH]c3c2)CC1 [Dovitinib] + Cn1nnc2c(C(N)=O)ncn2c1=O [temozolomide] (first compound 0.1 µM, partner dose 2 µM)",103
8,"CNC(=O)c1cc(Oc2ccc(NC(=O)Nc3ccc(Cl)c(C(F)(F)F)c3)cc2)ccn1 [sorafenib] + O=C(Nc1ccccc1)c1cc([N+](=O)[O-])ccc1Cl [GW9662] (first compound 0.4 µM, partner dose 2 µM)",105
9,"CN1CCN(c2ccc3nc(-c4c(N)c5c(F)cccc5[nH]c4=O)[nH]c3c2)CC1 [Dovitinib] + O=C(O)[C@@H]1[O][Sb](=[O])([O][Sb]2(=[O])[O][C@H]([C@H](O)CO)[C@H](O)[C@H](C(=O)O)[O]2)[O][C@H]([C@H](O)CO)[C@@H]1O [stibogluconate] (first compound 0.1 µM, partner dose 2 µM)",112
10,"CS(=O)(=O)CCNCc1ccc(-c2ccc3ncnc(Nc4ccc(OCc5cccc(F)c5)c(Cl)c4)c3c2)o1 [lapatinib] + CN(C)S(=O)(=O)c1ccc2c(c1)/C(=C/c1cc3c([nH]1)CCCC3)C(=O)N2 [SU6656] (first compound 0.8 µM, partner dose 0.4 µM)",110
11,"C=CCNC1=C2C[C@@H](C)C[C@H](OC)[C@H](O)[C@@H](C)/C=C(\C)[C@H](OC(N)=O)[C@@H](OC)/C=C\C=C(/C)C(=O)NC(=CC1=O)C2=O [Tanespimycin] + CCc1ccc(CCOc2ccc(CC3SC(=O)NC3=O)cc2)nc1 [pioglitazone] (first compound 0.002 µM, partner dose 2 µM)",100
12,"CS(=O)(=O)CCNCc1ccc(-c2ccc3ncnc(Nc4ccc(OCc5cccc(F)c5)c(Cl)c4)c3c2)o1 [lapatinib] + COc1cc2ncnc(Nc3ccc(Oc4ccccc4)cc3)c2cc1OC [SrcI1] (first compound 0.8 µM, partner dose 2 µM)",95.7
13,"CNC(=O)c1cc(Oc2ccc(NC(=O)Nc3ccc(Cl)c(C(F)(F)F)c3)cc2)ccn1 [sorafenib] + COc1cc(N2CCC(N3CCN(C)CC3)CC2)ccc1Nc1ncc(Cl)c(Nc2ccccc2S(=O)(=O)C(C)C)n1 [NVP-TAE684] (first compound 0.4 µM, partner dose 0.08 µM)",88.4
14,"CS(=O)(=O)CCNCc1ccc(-c2ccc3ncnc(Nc4ccc(OCc5cccc(F)c5)c(Cl)c4)c3c2)o1 [lapatinib] + NC(=O)Nc1cc(-c2cccc(F)c2)sc1C(=O)N[C@H]1CCCNC1 [AZD7762] (first compound 0.8 µM, partner dose 0.02 µM)",38.8
15,"C[C@@H](Oc1cc(-c2cnn(C3CCNCC3)c2)cnc1N)c1c(Cl)ccc(F)c1Cl [Crizotinib] + O=C(Nc1ccccc1)c1cc([N+](=O)[O-])ccc1Cl [GW9662] (first compound 0.2 µM, partner dose 2 µM)",95.7
16,"CNC(=O)c1cc(Oc2ccc(NC(=O)Nc3ccc(Cl)c(C(F)(F)F)c3)cc2)ccn1 [sorafenib] + Cc1cc(N2CCOCC2)cc2[nH]c(-c3c(NC[C@@H](O)c4cccc(Cl)c4)cc[nH]c3=O)nc12 [BMS536924] (first compound 0.4 µM, partner dose 0.2 µM)",85.8
17,"CN1CCN(c2ccc3nc(-c4c(N)c5c(F)cccc5[nH]c4=O)[nH]c3c2)CC1 [Dovitinib] + CC(C)(C)c1cnc(CSc2cnc(NC(=O)C3CCNCC3)s2)o1 [SNS-032] (first compound 0.1 µM, partner dose 0.01 µM)",99.6
18,"C=CCNC1=C2C[C@@H](C)C[C@H](OC)[C@H](O)[C@@H](C)/C=C(\C)[C@H](OC(N)=O)[C@@H](OC)/C=C\C=C(/C)C(=O)NC(=CC1=O)C2=O [Tanespimycin] + NCC(=O)Nc1ccc(-n2nc(C(F)(F)F)cc2-c2ccc3c(ccc4ccccc43)c2)cc1 [OSU03012] (first compound 0.002 µM, partner dose 1 µM)",99.1
19,"CS(=O)(=O)CCNCc1ccc(-c2ccc3ncnc(Nc4ccc(OCc5cccc(F)c5)c(Cl)c4)c3c2)o1 [lapatinib] + COc1ccc(-c2ccc3c(N4CCOCC4)nc(N4C[C@@H](C)O[C@@H](C)C4)nc3n2)cc1CO [KU0063794] (first compound 0.8 µM, partner dose 0.02 µM)",80.5
